# In PubChem BioAssay AID686970 (National Center for Advancing Translational Sciences (NCATS), 2013):
# About 6,000 (1.7%) of roughly 360,000 compounds were called active. Inconclusive means that the source gave no clear call. Such entries were picked first, then a sample of the others. Calls come from the whole dose curve; as a rule, active = well fitted cell-killing curve with a large enough effect; inconclusive = small, poorly fitted or top-dose-only effect, or effect the other way; inactive = flat fitted curve, though single readings scatter. No potency is given beside an inconclusive call; the fits are too rough.
# Assay: qHTS for induction of synthetic lethality in tumor cells producing 2HG: qHTS for the HT-1080-NT fibrosarcoma cell line;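 note: NT is the 2HG producing partner of a matched IDH1 knockdown line; nearly all actives have a fitted effect of over 55% in size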;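 for activity, negative = less viability: 0% = DMSO-treated cells and -100% = media-only wells without cells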
# Details: HT-1080-NT fibrosarcoma viability, CellTiter-Glo ATP luminescence, 48 h; activity, negative = less viability: at 46.1 µM (top of the series) unless noted
# Method in brief: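 A 48-hour cytotoxicity screen used HT-1080-NT cells plated 2 hours before compound delivery. ATP-based CellTiter-Glo luminescence measured viability, normalized to DMSO and no-cell controls.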
# Potency is the fitted concentration of half-maximal effect; tags give direction and shape of the fitted curve.
SMILES,"activity, negative = less viability",Potency
CCCCN1C(=O)C2(OCCCO2)c2cccc(C)c21,inactive: 8.23%,–
CCc1nc2c(OCc3ccc(C(F)(F)F)cc3)cccn2c1N(C=O)Cc1ccc(OC)cc1,–,"inconclusive [cytotoxic, single point]"
C/C(=N\NC(=O)c1nnn(-c2nonc2N)c1CN(C)c1ccccc1)c1ccc(O)cc1,inactive: -15.1%,–
COc1ccc(-c2oc3ccc(N4CCOCC4)cc3c2C#Cc2ccc(N)cc2)cc1,–,active: 16.4 µM
CCOc1cc(/C=C2\CCCC(C(=O)C(F)(F)F)=C2O)ccc1O,–,"inconclusive [cytotoxic, single point]"
O=C(Nc1cccc(OCC(=O)N2CCOCC2)c1)c1cccc(Cl)c1,–,"inconclusive [rising, single point]"
COc1ccc(N(C(=O)c2cccnc2)S(=O)(=O)c2ccc3c4c(cccc24)C(=O)N3C)cc1,–,"inconclusive [cytotoxic, partial curve]"
COc1ccccc1C(=O)NCC(=O)OCc1nnc(-c2ccccc2)o1,inactive: 1.65%,–
O=S1(=O)C[C@H](N2CCN(CC3CC3)CC2)[C@@H](COCc2ccccc2)N1,inactive: -11.8%,–
Cc1ccc(OCCNC(=O)c2ccc(NC(=O)CC3SC(N4CCCC4)=NC3=O)cc2)cc1 (configuration not stated),inactive: -1.6%,–
CCC(CC)c1nc(C#N)c(NCc2ccccc2)o1,–,"inconclusive [cytotoxic, partial curve]"
O=C(/C=C/c1ccc(O)cc1)c1ccc(O)cc1O,–,active: 25.9 µM
C[C@@H]1CN([C@H](C)CO)S(=O)(=O)c2ccc(C#C[C@@H](C)O)cc2O[C@@H]1CN(C)Cc1ccc(-c2ccccc2)cc1,–,"inconclusive [cytotoxic, single point]"
CCCCc1c(-c2ccccc2F)ncn1CCc1ccccc1OC,–,"inconclusive [cytotoxic, single point]"
COc1cccc(/C=C(/C(=O)OCC(=O)NC2CCCC(C)C2C)c2ccccc2)c1 (configuration not stated),–,"inconclusive [cytotoxic, single point]"
CCCCCCC(=O)N(O)C1CC(=O)N(c2ccc(F)cc2)C1=O (configuration not stated),–,active: 16.4 µM
CC(/C=C1\SC(=S)N(CC(=O)N2CCN(c3ccccc3)CC2)C1=O)=C\c1ccccc1,inactive: -1.2%,–
O=C(CCCCn1c(=O)c2ccccc2n(Cc2ccc(Cl)cc2)c1=O)NCc1ccco1,–,"inconclusive [cytotoxic, single point]"
CCOc1ccc(CCN2C(=O)C(=O)N([C@@H](Cc3ccccc3)CN3CCC[C@H]3CN3C(=O)C(=O)NC[C@@H]3CC(C)C)C[C@@H]2Cc2ccc(O)cc2)cc1,–,"inconclusive [cytotoxic, single point]"
Cn1c2c(c(=O)n(C)c1=O)C(C(F)(F)F)(C(F)(F)F)N=C(c1ccc(Cl)cc1)N2,–,"inconclusive [cytotoxic, partial curve, poor fit]"
O=C(/C(=N/N=C/c1ccc(O)c(O)c1)c1ccccc1)c1ccccc1,–,"inconclusive [cytotoxic, single point]"
CN1CCN(NC(=O)CN2C(=O)S/C(=C\c3c(Cl)cccc3Cl)C2=O)CC1,inactive: -6.01%,–
COc1ccc(-c2ccccc2[C@H]2[C@@H]3C=CC[C@@H](C)[C@@H]3C(=O)N2Cc2ccccc2)cc1,–,"inconclusive [cytotoxic, single point]"

SMILES,"activity, negative = less viability",Potency
CC1C(c2ccccc2)N(C)C(c2ccccc2)CC1(O)c1ccc(F)cc1 (configuration not stated),–,"inconclusive [cytotoxic, single point]"
CCc1cc(-c2cnnn2CCc2c[nH]c3ccccc23)ccc1-c1cn(CC(C)C)nn1,–,"inconclusive [cytotoxic, single point]"
CCOC(=O)c1cnc2ccc(C)cc2c1Sc1ccc(F)cc1,–,"inconclusive [cytotoxic, single point]"
Cc1sc2nc(CN(Cc3ccccc3)C(=O)NC3CCCCC3)[nH]c(=O)c2c1C,–,"inconclusive [cytotoxic, partial curve]"
Cc1cc(NC(=O)c2n[nH]c(=O)c3ccccc23)ccc1Br,–,"inconclusive [rising, partial curve]"
CN1/C(=C\C=N\O)C(C)(C)c2ccccc21,inactive: 6.79%,–
CCc1ccccc1N=C1S/C(=C/c2ccccc2OCC(=O)N2CCOCC2)C(=O)N1C,inconclusive: -31.4% [cytotoxic],–
Cc1ccc(-c2ccccc2NC(=O)C2C3C=CC(C3)C2C(=O)O)o1 (configuration not stated),inactive: -0.0439%,–
CCCOc1ccc(C(CC(=O)O)NC(=O)CC(c2ccccc2)c2ccccc2)cc1 (configuration not stated),–,"inconclusive [cytotoxic, single point]"
CCn1c2c(c3cc(Br)ccc31)CCC/C2=N\O,–,"inconclusive [cytotoxic, single point]"
COC(=O)C1CCC(=O)N1C(c1ccc(OC)cc1)c1cc(OC)c(OC)c(OC)c1 (configuration not stated),–,active: 1.16 µM
c1ccc(-c2ccc(-n3ccnc3)cc2)cc1,–,"inconclusive [cytotoxic, single point]"
CCOc1cc(/C=C\[N+](=O)[O-])ccc1OCC(=O)N1CCOCC1,–,"inconclusive [cytotoxic, single point]"
COc1ccccc1C(NC(=O)C1CCN(CCOc2ccc(Cl)cc2)CC1)c1ccccn1 (configuration not stated),–,"inconclusive [cytotoxic, single point]"
CCc1ccc2nc(N(CCCN(C)C)C(=O)c3ccc(S(=O)(=O)N4CCCc5ccccc54)cc3)sc2c1,–,"inconclusive [cytotoxic, single point]"
CCOc1ccc2c(c1)S/C(=C\c1cccs1)C(=O)N2,–,"inconclusive [cytotoxic, single point]"
Cc1ccc(OCC(O)CN2CCN(CC(O)COC(C)C)CC2)c(C(C)(C)C)c1 (configuration not stated),–,"inconclusive [cytotoxic, single point]"
O=C(N/N=C/c1ccc(O)cc1)c1ccc(NC(=O)c2ccccc2Br)cc1,inactive: -21.6%,–
O=C(Nc1nc(-c2ccccc2)cs1)c1ccccc1NS(=O)(=O)c1ccc(F)cc1,–,active: 6.51 µM
O=C(NNc1nc2ccc(Cl)cc2s1)c1cc(-c2cccs2)nc2ccccc12,–,"inconclusive [cytotoxic, partial curve, poor fit]"
COc1ccc(-c2cc(-c3cc(C)ccc3O)[nH]n2)cc1,–,active: 3.66 µM
O=[N+]([O-])c1cc([N+](=O)[O-])c(Oc2cccnc2Br)cc1NN1CCCCC1,inactive: -2.13%,–
O=C(CNCc1ccccc1)Nc1ccc(Oc2ccccc2)cc1,–,active: 7.31 µM

SMILES,"activity, negative = less viability",Potency
CC(C)(C)NC(=O)CC(c1ccccc1)c1ccccc1O (configuration not stated),–,"inconclusive [rising, partial curve]"
CCCCN(CCCC)S(=O)(=O)c1ccc(C(=O)Nc2nnc(COC)o2)cc1,–,"inconclusive [cytotoxic, partial curve]"
Cc1cc2ncn(CCCCOc3ccccc3)c2cc1C,–,"inconclusive [cytotoxic, single point]"
COc1cc(/C=N/N=C2/NC(=O)C(Cc3ccccc3)S2)ccc1O (configuration not stated),–,"inconclusive [cytotoxic, partial curve]"
O=[N+]([O-])c1ccc(N/N=C\c2cccn2-c2ccccc2)nc1,–,"inconclusive [cytotoxic, single point]"
Cc1c(CCOC(=O)C23CC4CC(CC(C4)C2)C3)sc[n+]1CC#N,–,"inconclusive [cytotoxic, single point]"
COc1ccc(NC(=O)N2CCN(C(=O)Nc3ccc(OC)cc3)CC2)cc1,–,"inconclusive [cytotoxic, single point]"
COc1ccc(-n2cc(-c3ccccc3)c3c(NN4CCOCC4)ncnc32)cc1,inactive: -25%,–
CCCC[C@H](CC(=O)c1ccccc1)[C@@H](OC(C)=O)C(=O)Oc1c(C(C)C)cccc1C(C)C,inactive: 11.9%,–
O=C(Nc1cccc(S(=O)(=O)NC2=NCCCCC2)c1)c1cc(-c2ccco2)nc2ccccc12,–,"inconclusive [cytotoxic, single point]"
CCC[C@H](CN[C@@H](CNC)[C@H](C)CC)NCCc1cc(C(F)(F)F)cc(C(F)(F)F)c1,–,"inconclusive [cytotoxic, single point]"
Clc1cccc(Cc2c(-c3ccco3)nc3ccc(Cl)cn23)c1,–,active: 23.1 µM
Cc1cc(C)nc(NS(=O)(=O)c2ccc(N/C=C\C(=O)c3cccs3)cc2)n1,inconclusive: -30.6% [cytotoxic],–
CCCCNCCOCCOc1ccc(C)cc1Br,inactive: -30%,–
CC(NC(=O)CN1C(=O)NC(Cc2ccccc2)(Cc2ccccc2)C1=O)C12CC3CC(CC(C3)C1)C2 (configuration not stated),–,active: 20.6 µM
COc1cc(/C=N\NC(=O)c2ccccc2F)ccc1Oc1ccc([N+](=O)[O-])cn1,–,active: 20.6 µM
COc1cc(Cl)cc(/C=C/c2ccc3ccccc3n2)c1OC(C)=O,–,active: 14.6 µM
Clc1ccccc1OCCNc1nc(NCC2CC2)nc2ccsc12,–,"inconclusive [cytotoxic, single point]"
CN(Cc1ccccc1O)CC1CCCN(CCc2ccc(Cl)cc2)C1 (configuration not stated),–,"inconclusive [cytotoxic, partial curve]"
CC1(C)CC2CC(C)(CN2c2ncnc3ccccc23)C1 (configuration not stated),–,"inconclusive [cytotoxic, single point]"
CCOC(=O)c1sc2ccc(S(=O)(=O)N3CCCCC3)cc2c1N,–,"inconclusive [cytotoxic, single point]"
